Hit rate of the full screen: of about 320,000 compounds, about 200 (0.062%) were called active. Inconclusive means that the source gave no clear call. Such entries were picked first, then a sample of the others. Calls follow the shape of the dose curve; as a rule, active = well fitted activation curve with a large enough effect; inconclusive = small, poorly fitted or top-dose-only effect; inactive = no such curve, though single readings can be large or run the other way. No potency is given beside an inconclusive call; the fits are too rough.
Test: qHTS assay for re-activators of p53 using a Luc reporter; also: nearly all actives have a fitted effect of over 45% in size
Conditions: H1299 p53-A138V BP100-luciferase reporter, luminescence, 24 h; series mostly up to 92.2 µM
Method in brief: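 p53-null H1299 cells stably carrying temperature-sensitive p53-A138V and a BP100-luciferase reporter were pinned with compounds (4-point, 1:5 series) and held 24 hrs at 37 deg C. Luminescence was read 10 min after detection reagent.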
Potency is read from the fitted curve at half-maximal effect; tags tell the direction and shape of the fitted curve.

Compound	Potency
N#Cc1c(NC(=O)C2CCCO2)sc2c1CCCCC2 (stereo not given)	inconclusive [activator, partial curve, poor fit]
c1coc(-c2nc(-c3ccncc3)no2)c1	inconclusive [activator, full curve, poor fit]
C=CCC(CC=C)(NC(=O)c1ccccc1C)c1ccccc1	inconclusive [activator, single point]
O=[N+]([O-])c1ccc(C[n+]2cccc3c4ccccc4ccc32)cc1	inactive
COc1ccc(Br)cc1/C=N/NC(=O)c1ccco1	inactive
Cc1c(C(=O)NC2CCC(C)CC2)oc2ccccc12 (stereo not given)	inconclusive [activator, partial curve, poor fit]
Cc1ccc(C(=O)N/N=C\c2ccncc2)s1	inactive
Nc1cccc(-c2cn3cc(C(F)(F)F)cc(Cl)c3n2)c1	inconclusive [activator, partial curve, poor fit]
Nc1c(C(=O)Nc2ccc3c(c2)OCCO3)nnn1Cc1ccc(Br)cc1	inconclusive [activator, partial curve, poor fit]
O=C(COC(=O)c1ccc(Oc2ccccc2)cc1)Nc1nnc(-c2ccccc2)o1	inconclusive [activator, single point]
CN(C)S(=O)(=O)c1cccc(C(=O)Nc2ccc(N3CCOCC3)cc2)c1	inactive
O=C(CC(Nc1ccccc1Cl)C(=O)O)c1ccccc1 (stereo not given)	inconclusive [activator, partial curve, poor fit]
CCN1CCN(c2ccc(NC(=O)c3ccc4c(c3)OCCO4)cc2C)CC1	inconclusive [activator, partial curve, poor fit]
Cc1ccc(NC(=O)CCn2c(=O)c3cccn3c3ccccc32)c(C)c1	inactive
CCOc1ccc(S(=O)(=O)NCCC(=O)NCC2(N3CCCCC3)CCCCC2)cc1	inconclusive [activator, partial curve, poor fit]
C=CCOC(=O)Cn1cnc2c(sc3nc(C)cc(C)c32)c1=O	inconclusive [activator, partial curve, poor fit]
CCc1ccc(NC(=S)NC(=O)CC(C)C)cc1	inconclusive [activator, full curve, poor fit]
Oc1c(C(Nc2nc3ccccc3s2)c2ccco2)ccc2cccnc12 (stereo not given)	inconclusive [activator, partial curve, poor fit]
CC(Sc1ccccc1)C(=O)NNC(=O)c1csc(N2CCOCC2)n1 (stereo not given)	inactive
C/C(CC(=O)Nc1ccc(Cl)cc1C(F)(F)F)=N\NC(=O)c1ccccn1	inconclusive [activator, full curve, poor fit]
CN(C)/C=N/C(=S)Nc1ccccc1Cl	inactive
CCC(=O)c1cc2c(cc1NC(=O)c1ccc(C)cc1)OCCO2	inconclusive [activator, partial curve]
COC(=O)c1cc(OC)c(OC)cc1N1C(=O)CCCC1=O	inactive
COc1ccc(OCC(=O)N/N=C(\C)c2cc3ccccc3o2)cc1	inconclusive [activator, single point]

Compound	Potency
Cc1cccc(/C=N/N2CCN(c3ccccc3)CC2)c1	inconclusive [activator, partial curve, poor fit]
CN1CCN(c2ccc(S(=O)(=O)N3CCCCC3)cc2NC(=O)/C=C/c2ccc(OC(F)F)cc2)CC1	inconclusive [activator, partial curve, poor fit]
CCC1C(=O)N=C(SCC(=O)Nc2ccc(S(N)(=O)=O)cc2)NC1=O (stereo not given)	inactive
Nc1cccc2c1C(=O)N(C(=O)/C=C/c1ccc(F)cc1)C2=O	inconclusive [activator, single point]
COc1cc(C(=O)NCC2CCCO2)ccc1OCc1ccc(Cl)cc1 (stereo not given)	inconclusive [activator, single point]
Cc1ccc2oc(-c3cccc(NC(=O)C4CCCO4)c3)nc2c1 (stereo not given)	inactive
Nc1nc(-c2ccc3c(c2)OCCO3)c(CC(=O)O)s1	inconclusive [activator, single point]
Oc1ccc(-c2csc(Nc3ccccn3)n2)cc1	inconclusive [activator, partial curve, poor fit]
COc1ccc(C(=O)N2CCN(c3ccc(N4CCOCC4)nn3)CC2)cc1OC	inactive
COc1cccc(-c2nn(-c3ccc(C)cc3)cc2C(=O)NCC2CCCO2)c1 (stereo not given)	inactive
C=CCSC(=C(C#N)C#N)c1cc2c([nH]1)CCCC2	inactive
COc1ccc(-c2nnc(SCC(=O)c3ccc[nH]3)n2-c2ccccc2)cc1	inconclusive [activator, partial curve, poor fit]
O=C(Nc1ccc2c(c1)OCCO2)NC1(C(F)(F)F)Oc2ccccc2O1	inconclusive [activator, partial curve, poor fit]
CC1CCc2sc(C(=O)NCC(c3ccco3)N3CCCCC3)cc2C1 (stereo not given)	inconclusive [activator, single point]
CN1CCN(CCCNC(=O)c2ccc3c(c2)N(Cc2ccccc2)CCS3)CC1	inconclusive [activator, single point]
Cc1nc2sc(C(=O)c3ccccc3)c(N)c2c2c1CCCC2	inconclusive [activator, partial curve, poor fit]
NC(=O)c1ccccc1NC(=S)NC(=O)c1ccc(Br)o1	inconclusive [activator, single point]
CCCC(c1nnnn1CC1CCCO1)N1CCN(c2nc3ccccc3s2)CC1 (stereo not given)	inactive
CCc1cc2c(=O)c(-c3ccc4c(c3)OCCO4)c(C)oc2cc1OS(C)(=O)=O	inconclusive [activator, partial curve, poor fit]
O=C(NCc1ccccc1)c1cccc(COc2ccc(Cl)cc2)c1	inconclusive [activator, single point]
CC(OC(=O)c1cc2c(ccc3ccccc32)oc1=O)c1nc2ccccc2s1 (stereo not given)	inactive
COc1cc(NC(=O)c2ccc(S(=O)(=O)N(C)c3ccccc3)cc2)cc(OC)c1	inactive
CNc1ccccc1C(C)(C)c1cc(-c2cccc(OC)c2)no1	inactive
Cc1ccc(-c2ccc(SCC(=O)Nc3ccc4c(c3)OCCO4)nn2)cc1	inconclusive [activator, full curve, poor fit]

Compound	Potency
C=CCNC(=O)CC1Nc2c3ccccc3nc(=S)n2C1=O (stereo not given)	inactive
CCOc1ccc(-c2noc(COC)n2)cc1OC	inconclusive [activator, single point]
CN(C)c1ccc(NC(=O)/C=C/c2ccccc2Cl)cc1	inconclusive [activator, partial curve, poor fit]
O=C1/C(=C/c2ccc([N+](=O)[O-])cc2)CCc2ccccc21	active: 11.2 µM
CN1CCN(C(=O)CCN2C(=O)/C(=C\c3ccc(F)cc3)SC2=S)CC1	inconclusive [activator, partial curve, poor fit]
CC(C)Oc1cccc(C(=O)NC(=S)Nc2ccccc2)c1	inconclusive [activator, partial curve, poor fit]
O=C(c1cnn(-c2ccccc2)c1)c1ccc2ccccc2c1O	inconclusive [activator, single point]
CCOC(=O)c1nnn(CC(=O)N2N=C(c3ccc(Cl)cc3)CC2c2ccc(OC)cc2)c1C(=O)OCC (stereo not given)	inactive
Cc1cc(C)cc(C(=O)NC(=S)Nc2ccc3c(c2)OCCO3)c1	inconclusive [activator, partial curve, poor fit]
O=C(N/N=C/c1ccoc1)c1ccc(Cl)cc1	inactive
O=C(NNC1=Nc2ccccc2SC1)c1cccc([N+](=O)[O-])c1	inactive
COC(=O)c1ccc2c(=O)n(CCCCCC(=O)O)c(=S)[nH]c2c1	inactive
Cc1c(Cl)cccc1NC(=O)CS(=O)(=O)c1ccccc1	inconclusive [activator, single point]
COc1ccc(CCNC(=O)CN2C(=O)c3ccccc3S2(=O)=O)cc1OC	inactive
O=C(NC(=S)Nc1ccc(O)cc1)C1CCCC1	inconclusive [activator, full curve, poor fit]
COC(=O)c1cc(C(=O)Nc2ccc(C)cn2)cc([N+](=O)[O-])c1	inconclusive [activator, partial curve, poor fit]
CN(C)CCCN(C(=O)c1sc2ccccc2c1Cl)c1nc2ccc(F)cc2s1	inconclusive [activator, partial curve, poor fit]
Cc1ccc(-c2nnc(N(C)C(=O)c3cccnc3)s2)cn1	inconclusive [activator, single point]
COCC(=O)Nc1c(C(=O)Nc2cccc(OC)c2)oc2ccccc12	inconclusive [activator, full curve, poor fit]
CCCc1ccc2oc(C(=O)NCc3nnc(C)o3)c(C)c2c1	inconclusive [activator, full curve, poor fit]
N#Cc1ccc(C(=O)Nc2ccc3ccccc3c2)cc1	inconclusive [activator, full curve, poor fit]
O=C(c1cc(-c2ccccc2O)on1)N1CCOCC1	inconclusive [activator, partial curve, poor fit]

From PubChem BioAssay AID504706 (National Center for Advancing Translational Sciences (NCATS), 2011)
